Experimental data published in patent US7547818B2, “Metaphase donor cells for effective nuclear reprogramming in mammals” (The University of Georgia research Foundation, Inc., priority 2000, dated 2009).

What was measured:
pig oocytes = assay: Arrest of oocytes in MI during in vitro maturation; assay type: cell-based
bovine somatic cells = assay: Arrest of bovine somatic cells in metaphase by nocodazole, Hoechst staining; assay type: cell-based
[1] = system: transferred bovine NT blastocysts; assay: Embryo transfer and fetal development of NT embryos in recipient females
bovine granulosa cells = assay: Cell cycle phases by flow cytometry (propidium iodide DNA content) after cell cycle inhibitors; assay type: cell-based
[2] = system: bovine NT embryos derived from granulosa cells; assay: In vitro development of NT embryos from roscovitine treated donor cells; conditions: donor granulosa cells treated with 15 μM roscovitine; day seven
[3] = transferred blastocysts derived from roscovitine treated cells

## C=C1[C@@H](C)[C@H]2[C@H](Cc3ccccc3)NC(=O)[C@]23OC(=O)/C=C/[C@H](O)CCC[C@@H](C)C/C=C/[C@H]3[C@@H]1O [Cyt B, cytochalasin B]
Pig oocytes; at 29 hours after IVM
  Proportion of oocytes at M I phase in comparison to control oocytes: did not significantly increase
Pig oocytes; treatment between 30 and 35 hours after IVM
  Arresting oocytes at M I phase: not effective

## COC(=O)Nc1nc2ccc(C(=O)c3cccs3)cc2[nH]1 [nocodazole]
Bovine somatic cells; nocodazole 0.3 ug/ml, exposure 3 hours, 200 observed
  Percentage of bovine somatic cells in culture arrested: 10%
Bovine somatic cells; preliminary experiments, removal of nocodazole
  Reversibility of nocodazole arrest of somatic cells: reversible

## CC[C@H](CO)Nc1nc(NCc2ccccc2)c2ncn(C(C)C)c2n1 [Ros, roscovitine]
[1]; NT embryos produced using roscovitine arrested donor cells
  Calves born: Two living genetically identical calves
[1]; roscovitine group, p<0.05 vs serum-starved group
  development rate beyond 200 days: 12.5±2.0%
[1]; [3]
  fetal developmental rate to 30-70 days: 27.8±2.7%
  fetal developmental rate to 190 days: 12.5±2.0%
Bovine granulosa cells; 15 μM roscovitine for 24 hours, p<0.05 vs serum starved and controls
  cells in late G1 phase: 82.4±0.2%
Bovine granulosa cells; 15 μM roscovitine for 24 hours, p<0.05 vs serum-starved and controls
  percentage of cells in G2-M phase: 9.5±0.1%
Bovine granulosa cells; bovine granulosa cells and pig ear fibroblasts, tables 4-7
  Arresting cells in late G1, comparison of inhibitors: superior to olomoucine
[2]
  Blastocyst formation rate of NT embryos: 12.9±0.5%
  Cleavage rate of NT embryos: 54.3±1.8%
